Structures can show the parent of a compound that is named as a salt. ± gives the standard deviation of the averaged measurements. Over roughly 1,300 compounds, “normalised cell viability” has its median near 1; the lowest 2% begin near 0.15. The list shows a part of the results.

The assay has as its system V-C8 + BRCA2 (BRCA2-proficient hamster cells). As to the kind of experiment: normalised cell viability (fraction of plate median); higher = more viable cells (less toxic). As to conditions: 5 µM. The essentials: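 Library drugs, held as 10 mM stocks in DMSO, were diluted to 5 μM in 100 μl medium and added to 96-well plates of V-C8 hamster cells, either lacking BRCA2 or with BRCA2 restored, 24 h after seeding. Plates ran for 3 days (screen 1) or 6 days (screen 2), alongside solvent-only wells. Viability came from a resazurin readout, median-plate normalised, as the mean of triplicate wells.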

In the case of `N=C(N)NCCN1CCCCCCC1` [Guanethidine sulfate], the normalised cell viability is, setting by setting: (treatment time: 3 days) 0.978 ± 0.042; (treatment time: 6 days) 0.941 ± 0.065.

On to `CC1(C)[C@@H](OC(=O)CCC(=O)O)CC[C@]2(C)[C@H]3C(=O)C=C4[C@@H]5C[C@@](C)(C(=O)O)CC[C@]5(C)CC[C@@]4(C)[C@]3(C)CC[C@@H]12` [Carbenoxolone disodium salt], for which the normalised cell viability was 1.02 ± 0.03 (treatment time: 3 days) and 1.02 ± 0.06 (treatment time: 6 days).

Take `CC(CN(C)C)CN1c2ccccc2Sc2ccccc21` (stereo not drawn) [Trimeprazine tartrate]: the normalised cell viability by setting is: (treatment time: 3 days) 0.976 ± 0.024; (treatment time: 6 days) 0.969 ± 0.029.

Turning to `CC(C(=O)O)c1ccc(C(=O)c2ccccc2)s1` (stereo not drawn) [Tiaprofenic acid], the normalised cell viability turned out to be 0.467 ± 0.025 (treatment time: 3 days) and 0.53 ± 0.017 (treatment time: 6 days).

On to `CC(=O)N(CC(O)CN(C(C)=O)c1c(I)c(C(=O)NCC(O)CO)c(I)c(C(=O)NCC(O)CO)c1I)c1c(I)c(C(=O)NCC(O)CO)c(I)c(C(=O)NCC(O)CO)c1I` (stereo not drawn) [Iodixanol], for which the normalised cell viability by setting is: (treatment time: 3 days) 0.975 ± 0.053; (treatment time: 6 days) 1 ± 0.059.

`c1ccc(CN(CC2=NCCN2)c2ccccc2)cc1` [Antazoline hydrochloride]: the normalised cell viability is, setting by setting: (treatment time: 3 days) 1.03 ± 0.027; (treatment time: 6 days) 1.043 ± 0.0053.

Turning to `CN(C)CC/C=C1/c2ccccc2COc2ccc(CC(=O)O)cc21` [Olopatadine hydrochloride], the normalised cell viability is 1 ± 0.024 (treatment time: 3 days) and 0.996 ± 0.033 (treatment time: 6 days).

In the case of `C=CCSCC1Nc2cc(Cl)c(S(N)(=O)=O)cc2S(=O)(=O)N1` (stereo not drawn) [Althiazide], the normalised cell viability is, setting by setting: (treatment time: 3 days) 0.915 ± 0.018; (treatment time: 6 days) 1.01 ± 0.1.

For `C[C@]12CC[C@@H]3c4ccc(OS(=O)(=O)O)cc4CC[C@H]3[C@@H]1CCC2=O` [Estropipate], the normalised cell viability (treatment time: 3 days) is 0.988 ± 0.036 and the normalised cell viability (treatment time: 6 days) came out at 0.914 ± 0.14.

In the case of `Cc1ccc(S(=O)(=O)NC(=O)NN2CCCCCC2)cc1` [Tolazamide], the normalised cell viability reads like this: (treatment time: 3 days) 1 ± 0.066; (treatment time: 6 days) 0.935 ± 0.085.

In the case of `CCOC(=O)c1ccc(N)cc1` [Benzocaine], the normalised cell viability is, setting by setting: (treatment time: 3 days) 0.871 ± 0.023; (treatment time: 6 days) 0.9583 ± 0.0066.

For `CCN(CC)CCOC(=O)C(c1ccccc1)c1ccccc1` [Adiphenine hydrochloride], the normalised cell viability came out at 0.961 ± 0.033 (treatment time: 3 days) and 0.916 ± 0.11 (treatment time: 6 days).

As for `OC(CCCN1CCCCC1)(c1ccccc1)c1ccccc1` [Diphenidol hydrochloride], the normalised cell viability (treatment time: 3 days) was determined as 1.08 ± 0.066 and the normalised cell viability (treatment time: 6 days) was found to be 1.05 ± 0.025.

Take `Nc1nc(NC2CC2)c2ncn([C@H]3C=C[C@@H](CO)C3)c2n1` [Abacavir Sulfate]: the normalised cell viability is, setting by setting: (treatment time: 3 days) 1.04 ± 0.02; (treatment time: 6 days) 1.07 ± 0.034.

For the compound `CCN(CC)CCNc1ccc(CO)c2sc3ccccc3c(=O)c12` [Hycanthone], the normalised cell viability by setting is: (treatment time: 3 days) 0.305 ± 0.045; (treatment time: 6 days) 0.239 ± 0.0094.

Turning to `CN(Cc1cnc2nc(N)nc(N)c2n1)c1ccc(C(=O)N[C@@H](CCC(=O)O)C(=O)O)cc1` (racemic) [Amethopterin (R,S)], the normalised cell viability (treatment time: 3 days) stood at 0.242 ± 0.0062 and the normalised cell viability (treatment time: 6 days) was 0.212 ± 0.0063.

As to `CN(Cc1cnc2nc(N)nc(N)c2n1)c1ccc(C(=O)N[C@@H](CCC(=O)O)C(=O)O)cc1` [Methotrexate], the normalised cell viability (treatment time: 3 days) came out at 0.253 ± 0.0062 and the normalised cell viability (treatment time: 6 days) worked out at 0.2 ± 0.018.

Turning to `CNC(C)CCC=C(C)C` (stereo not drawn) [Isometheptene mucate], the normalised cell viability by setting is: (treatment time: 3 days) 1.03 ± 0.022; (treatment time: 6 days) 0.991 ± 0.057.

As for `O=C(COc1ccc(Cl)cc1)N1CCN(Cc2ccc3c(c2)OCO3)CC1` [Fipexide hydrochloride], the normalised cell viability (treatment time: 3 days) was determined as 1.02 ± 0.046 and the normalised cell viability (treatment time: 6 days) was 1.07 ± 0.065.
